Whole data set: some 110,000 compounds, median “z-score” near -0.1, cut for the highest 2% near 2. This is one part of the list. Activity calls are given as the source filed them.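 Rule for the calls: active = z-score in the third read window above 3 or below -3; inactive = the rest.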

The experiment has as its target Metabotropic glutamate receptor 8 (Rattus norvegicus) (UniProt P70579). Nature of the experiment: mGluR8 Gi/Go-coupled signaling modulation – cell-based, rat, thallium flux, HTS, primary screen (AID 488969). As to conditions: HEK293 rat mGluR8, GIRK (G protein-gated inwardly rectifying potassium channel) thallium flux, FluoZin2; at 10 µM; stronger effect = higher value; submaximal glutamate (EC20) added with thallium.
Sequence of UniProt P70579 (P70579 whole entry, looked up): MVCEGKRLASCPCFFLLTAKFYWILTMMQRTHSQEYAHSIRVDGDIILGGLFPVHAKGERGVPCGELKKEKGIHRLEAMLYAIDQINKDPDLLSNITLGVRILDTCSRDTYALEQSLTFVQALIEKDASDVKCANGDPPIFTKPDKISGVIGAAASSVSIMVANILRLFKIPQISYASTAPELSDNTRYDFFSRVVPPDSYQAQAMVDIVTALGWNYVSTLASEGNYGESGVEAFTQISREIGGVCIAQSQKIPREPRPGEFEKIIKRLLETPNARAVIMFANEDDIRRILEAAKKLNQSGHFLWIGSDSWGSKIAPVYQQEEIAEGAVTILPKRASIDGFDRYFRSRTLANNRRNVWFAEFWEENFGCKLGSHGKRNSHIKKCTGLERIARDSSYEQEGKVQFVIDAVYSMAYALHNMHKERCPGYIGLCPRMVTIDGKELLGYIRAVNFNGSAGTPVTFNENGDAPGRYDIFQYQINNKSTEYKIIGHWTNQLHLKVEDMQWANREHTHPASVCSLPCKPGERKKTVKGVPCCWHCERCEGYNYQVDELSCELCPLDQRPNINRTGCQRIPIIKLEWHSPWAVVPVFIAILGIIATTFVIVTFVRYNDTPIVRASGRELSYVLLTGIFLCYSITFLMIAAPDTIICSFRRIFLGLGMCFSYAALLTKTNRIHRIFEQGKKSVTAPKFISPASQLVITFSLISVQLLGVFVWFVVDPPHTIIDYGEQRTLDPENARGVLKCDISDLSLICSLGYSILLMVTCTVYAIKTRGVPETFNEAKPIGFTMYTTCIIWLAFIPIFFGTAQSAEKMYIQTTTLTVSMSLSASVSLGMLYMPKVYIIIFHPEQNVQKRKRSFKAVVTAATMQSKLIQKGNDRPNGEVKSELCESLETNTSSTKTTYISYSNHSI
`CN(c1ccc(C(=O)NCC2CCCO2)cc1)S(C)(=O)=O` (centres undefined) registered a z-score of -0.404. `N#Cc1c(NC(=O)CSc2nc(N)cc(=O)[nH]2)sc2c1CCCCCC2` gave a z-score of -1.32.

In the case of `Cc1ccc(C(=O)NNC(=O)C(C)Sc2nc(N)cc(N)n2)cc1` (centres undefined), the z-score came to 0.236.

Molecule `Cc1cccc(C2CC(c3ccc(F)cc3)Nc3nc(N)nn32)c1` (centres undefined) returned a z-score of -0.0506. Take `CC(C)(C)c1nnc(N/N=C/c2ccc(Br)cc2)n(N)c1=O`: the z-score was 0.0626.

As for `COC(=O)[C@H](CC(C)C)NC(=O)Nc1ccc2c(c1)OCCO2`, the z-score is active: 3.6. Take `Cc1nnc(SCC(=O)N/N=C/c2ccc(-c3ccc(C)c(Cl)c3)o2)s1`: the z-score is -0.286. `N#CCC1c2ccccc2CCN1C(=O)Nc1ccc(C(F)(F)F)cc1` (centres undefined): the z-score is -0.886. The value for `CN(c1ccc([N+](=O)[O-])cc1C(=O)Nc1ccccc1)C1CCCCC1` was -0.377. On to `COC(=O)c1ccc(CSc2nc3ccccc3c(=O)n2CC(C)C)o1`, for which the z-score is -0.177. With `CN(Cc1ccccc1)S(=O)(=O)c1ccc(NC(=S)NC(=O)C2CCCCC2)cc1` the figure was -0.0674.

Consider `CC(=O)Nc1nonc1-c1nc2ccccc2n1CC1CC1`, for which the z-score was 0.025. With `Cc1ccc(NC(=O)/C(C#N)=C/c2cc(C)n(-c3ccc(N4CCOCC4)c([N+](=O)[O-])c3)c2C)c(C)c1` the figure was -0.136. In turn, `CC1=C(C(=O)Nc2ccc(C)cc2C)C(c2ccc([N+](=O)[O-])cc2)n2ncnc2N1` (centres undefined) had a z-score of -0.3. Consider `CCN1CCCC1CN=Cc1c(O)n(-c2ccccc2)c(=O)c2ccccc12` (centres undefined), for which the z-score stood at 0.201.

On to `O=C(NCc1ccncc1)C(=O)Nc1nc(C23CC4CC(CC(C4)C2)C3)cs1`, for which the z-score worked out at 0.792. With `COc1ccc(OC)c(NC(=O)c2ccccc2NS(=O)(=O)c2cccc3cccnc23)c1` the figure was 0.685; with `C=CCN(C(=O)Nc1ccc(Cl)cc1)C1CC(=O)N(c2ccc(OC)cc2)C1=O` (centres undefined), -0.0352. With `Cc1ccsc1/C=N/n1c(COc2ccccc2)n[nH]c1=S` the figure was 0.533. The value for `NNC(=O)[C@H]1C[C@@H]1c1ccccc1` was 0.22. Molecule `COc1cccc(N=c2oc3ccccc3cc2-c2nc3ccccc3[nH]2)c1` yielded a z-score of -0.0872. `CCOC(=O)c1ccc(N2CN(CC)CNC2=S)cc1`: the z-score was -0.43. Regarding `COc1ccc(-n2c(COc3ccc(C)cc3)nnc2SCc2ccc(C#N)cc2)cc1`, the z-score was found to be 0.0959. The value for `Brc1ccc(-c2cn3cccnc3n2)cc1` was 0.165; that for `Cc1cc(-n2ccnc2)n2c(nc3ccccc32)c1C#N` was -0.209; that for `N#Cc1c(NC(=S)NC(=O)c2ccccc2)sc2c1CCN(CCc1ccccc1)C2` was 0.0665.

`O=C(Nc1ccn(Cc2ccccc2F)n1)c1ccc(COc2cc(Cl)ccc2Cl)o1`: the z-score was -0.856. With `COC(CNC(=O)c1ccc2nc(-c3cccs3)c(-c3cccs3)nc2c1)OC` the figure was -0.619; with `Cc1cccc2cc(-c3ccccc3)c(-c3ccccc3)c[n+]12`, -0.127; with `CN(C)S(=O)(=O)N1CCN(C(=O)c2ccccc2Cl)CC1`, 0.0266. For `Cc1[nH][nH]c(=O)c1C(c1cc([N+](=O)[O-])ccc1O)c1c(C)[nH][nH]c1=O`, the z-score was -0.177.

In the case of `CCOC(=O)c1sc2nc(C(C)C)c3c(c2c1N)CCC3`, the z-score worked out at 0.0566. `CCc1ccccc1NC(=O)c1cc2ncc(Br)cn2n1` showed a z-score of -0.0287. With `CCOC(=O)c1c(C)nc2sc(C(=O)Nc3ccccc3)c(N)c2c1-c1ccc(OC)cc1` the figure was -0.197. `CCOC(=O)CCC(=O)NCc1ccc2[nH]c(C)cc2c1` had a z-score of 0.305.

Molecule `O=C1CC(N2CCN(c3ccc(O)cc3)CC2)C(=O)N1Cc1cccs1` (centres undefined) gave a z-score of -0.238. The value for `C=CCN1C(=O)/C(=C2\SC(N3CCOCC3)=NC2=O)c2cc(Br)ccc21` was 0.982; that for `Cc1ccc(C(=O)NCCCN2CCOCC2)o1` was -0.201; that for `Cc1cccc(-c2nsc(SCC(=O)c3ccc(Cl)cc3)n2)c1` was -0.116. Turning to `Cc1c(C(N)=O)sc2ncn(CC(=O)N3CCC(C)CC3)c(=O)c12`, the z-score is -0.00147. The molecule `COC(=O)CSc1nc2nc(C)c(Br)cc2[nH]1` returned a z-score of -0.305. `CCCCNC(=O)C(=O)NC(C)CCc1ccccc1` (centres undefined): the z-score is -0.0461. In turn, `O=C(NCCC1=CCCCC1)C1CC(=O)N(C2CCCCCC2)C1` (centres undefined) registered a z-score of -0.362.

Regarding `COc1ccccc1NC(=S)N1CCN(Cc2ccc3c(c2)OCO3)CC1`, the z-score was -0.224. As for `COc1ccc(S(=O)(=O)NC2(C(F)(F)F)N=C3SCCN3C2=O)cc1` (centres undefined), the z-score was found to be 0.0322. The value for `Cc1ccc(-c2nnc(SCC(=O)Nc3sc(C)c(C)c3C#N)n2C)cc1` was 0.241; that for `O=C(CN1CCN(c2ccc(O)cc2)CC1)Nc1ccc(SC(F)F)cc1` was -0.296; that for `CSc1nc2ncc3c(n2n1)CC1c2ccccc2CCN1C3=O` (centres undefined) was -0.305. With `O=[N+]([O-])c1cc(/C=N/N2CCN(C3c4ccccc4-c4ccccc43)CC2)ccc1Cl` the figure was 0.148.

Molecule `CCn1c(=O)c(C(=O)Nc2ccccc2C)c(O)c2ccccc21` displayed a z-score of -0.15.

`CN1CCc2nc(SCC(=O)Nc3ccc(Cl)cc3)c(C#N)cc2C1` showed a z-score of 0.131. `CC(C)Oc1ccc(C(CC(=O)N(C)CCC#N)c2ccc(F)cc2)cc1` (centres undefined) yielded a z-score of -0.362. On to `CCCC1C(C(=O)OCC)=C(C)NC(C)=C1C(=O)OCC`, for which the z-score was -0.94. In the case of `O=C(c1cc2cc(Cl)cc(Cl)c2oc1=O)N1CCOCC1`, the z-score was -0.472. With `COc1ccc(OCC(=O)N2CCN(c3nnc(-c4ccccc4)c4ccccc34)CC2)cc1` the figure was 0.267; with `O=C(Nc1nc2c(s1)CCCC2)c1ccc(S(=O)(=O)N2CCCc3ccccc32)cc1`, 0.0595.

Molecule `Cc1ccc(C(=O)Nc2ncc(Cc3ccc(SC(F)F)cc3)s2)cc1` showed a z-score of -0.155.

`O=C(CCCC(=O)N(CC(=O)NC1CCCC1)Cc1ccc2c(c1)OCO2)Nc1ccccn1`: the z-score turned out to be 1.89.

`Cc1cc(C)nc(-n2nc(C)cc2NC(=O)CN2CCc3ccccc3C2)n1`: the z-score is -0.502.

Molecule `COc1ccc(NC(=O)CSc2nc(N)c(-c3ccccc3)c(=O)[nH]2)cc1` returned a z-score of -0.236.

`Cc1nnc(SCc2cccc(Oc3ccccc3)c2)n1N`: the z-score turned out to be 0.446. With `CCCCN1C(=O)C(NC(=O)C2CC2)(C(F)(F)F)C2=C1CC(C)(C)CC2=O` (centres undefined), the z-score was 0.836. With `CCn1c(=O)c2cc(S(=O)(=O)NCc3ccccc3)ccc2n(CC)c1=O` the figure was -0.246; with `O=C(NCCCn1ccnc1)/C(=C\c1cccs1)NC(=O)c1ccccc1`, -0.191. The molecule `O=C(CN1C(=O)CSCC1=O)Nc1ccc2c(c1)OCO2` showed a z-score of -0.195. In turn, `O=C(CN(c1ccc(Cl)c(C(F)(F)F)c1)S(=O)(=O)c1ccccc1)N/N=C/c1cccc2c1OCCO2` registered a z-score of 0.23. Regarding `Cc1nnc(SCC(=O)N2CC(=O)Nc3ccccc32)n1C`, the z-score was determined as 0.683.

Take `CCOc1cccc(CN2CCN(c3cccc(C(F)(F)F)c3)CC2)c1O`: the z-score came out at 0.145. Molecule `Cc1ccc(S(=O)(=O)N(C)CC(=O)Nc2ccccc2)cc1` came in with a z-score of -0.0279. With `CCOC(=O)COc1cccc2c(=O)n(CC(=O)N3CCN(C(=O)OCC)CC3)ccc12` the figure was -0.0151. Regarding `COc1ccccc1OCC(=O)NN1Cc2ccccc2C1=N`, the z-score is -0.434. For `Cc1ccc(/C=N/NC(=O)c2ccccn2)o1`, the z-score is -0.512. Consider `CCc1ccc(C(=O)CSC2=C(C#N)C(c3ccco3)C(C(C)=O)=C(C)N2)cc1` (centres undefined), for which the z-score was -0.295. For the molecule `Cc1ccc(N2C(=O)C(NC(=O)c3ccccc3F)(C(F)(F)F)C3=C2CC(C)(C)CC3=O)cc1` (centres undefined), the z-score was found to be 0.22.

Molecule `COc1cc(C2=NOC(C(=O)NCc3cccs3)C2)cc(OC)c1OC` (centres undefined) came in with a z-score of -0.117.

`O=C(c1ccccc1Oc1nnnn1-c1ccccc1)N1CCOCC1` showed a z-score of -0.23.

For the molecule `CCOC(=O)c1c(N2C(=O)Nc3ccccc3N2O)sc2c1CCCCC2`, the z-score is -0.536. As for `CCC(=O)N(CC)c1nc(-c2cc(OC)ccc2OC)cs1`, the z-score is -0.221. `CCCCNC(=O)NC1CCCC1` had a z-score of -0.132. `O=C(O)CC(O)C(=O)O` (centres undefined) registered a z-score of 0.546. In the case of `CC(=O)c1nc(N2C(=O)CC(Cc3cc(C)cc(C)c3)C2=O)sc1C` (centres undefined), the z-score was determined as 2.19. `COc1cccc(OC)c1C(=O)Nc1ccc(C)cc1C(=O)c1ccccc1` returned a z-score of 0.12. For the molecule `Cc1noc(C)c1S(=O)(=O)NCCc1ccc(S(N)(=O)=O)cc1`, the z-score was -0.365. `COc1ccc(Oc2nccc(-c3ccc(Cl)cc3)n2)cc1`: the z-score was -0.0957. The molecule `CC(C)N(CCc1ccncc1)C(=O)Nc1ccc(F)cc1` showed a z-score of -0.201. `Cc1cccc(S(=O)(=O)NC(Cc2c[nH]c3ccccc23)C(=O)O)c1` (centres undefined) yielded a z-score of 2.17.

Take `COCCN=C1Sc2nc3c(C)cccc3cc2CN1Cc1ccco1`: the z-score is 0.0241.

The molecule `COc1ccc(O)c(-c2cn[nH]c2-c2cccs2)c1` had a z-score of 0.787.

The molecule `CC(C)CN(C(=O)CN1CCN(c2ccc(F)cc2)CC1)c1c(N)n(CC(C)C)c(=O)[nH]c1=O` yielded a z-score of -0.0842. In the case of `CCC(C)C1C(C#N)=C(N)Oc2n[nH]c(C)c21` (centres undefined), the z-score was -0.936. As for `O=C(CCS(=O)(=O)c1ccccc1)Nc1nc2c(s1)COc1ccccc1-2`, the z-score was -0.504. With `Cc1cccc(C)c1NC(=O)NC1CC2CCC(C1)N2Cc1cccs1` (centres undefined) the figure was -0.35; with `CC1(c2ccc(OC(F)F)cc2)NC(=O)N(/N=C/c2c(O)ccc3ccccc23)C1=O` (centres undefined), 0.709. The molecule `COc1cc(NS(=O)(=O)c2ccc(N/C=C(\C=O)c3nc4ccccc4o3)cc2)nc(OC)n1` displayed a z-score of -0.664. Molecule `CC(=O)N1CCN(C(=S)c2ccc([N+](=O)[O-])cc2)CC1` returned a z-score of -0.16. With `CC(C)C(O)(C#CCN1CCCCC1)C(C)C` the figure was -0.19; with `CCSc1ccc(-c2nn(-c3ccccc3)cc2/C=C(/C#N)C(=O)NCCCOC)cc1`, -2.09. Molecule `CCCCCC(=O)NC(=S)Nc1ccc(N2CCOCC2)cc1` came in with a z-score of -0.42. `Cc1nc2ccccc2n1CC(=O)N/N=C\c1ccccn1`: the z-score is 0.341. The value for `CCS(=O)(=O)/N=C(\N)c1ccccc1` was 0.166; that for `COc1ccc(/C=C(\NC(=O)c2ccccc2)C(=O)N/N=C/c2sccc2C)cc1` was -0.28.

`CCOC(=O)c1c(NC(=O)CN2CCOCC2)sc2c1CC(C)(C)OC2` showed a z-score of -0.226. The value for `Clc1ccc(Cl)c(OCCN2CCOCC2)c1` was -0.122; that for `Cn1nccc1C(=O)Nc1ccc(Cl)cc1` was 0.196; that for `CCOC(=O)/C(C#N)=C/C1=C(N2CCCC2)CC(C)(C)OC1` was 2.75.

Take `COc1ccc(OC)c(CNC(=O)Cc2c(C(=O)O)[nH]c3ccccc23)c1`: the z-score is -0.828. Molecule `Cn1nc(OC(=O)Nc2ccc(Cl)cc2)cc1C(F)(F)F` came in with a z-score of -0.309. `CCN1CCN(CC(=O)c2c[nH]c3ccccc23)CC1` registered a z-score of -0.051. Regarding `CC(=O)c1c(C)nn(CCC(=O)O)c1C`, the z-score was -0.184.

Source of the values: PubChem BioAssay AID488969 (Vanderbilt High Throughput Screening Facility, 2010).
